Patent US20250270339A1 (Alector, published 2025)

T1: Cyno TfR ECD Avi-His (cynomolgus macaque, UniProt Q5RDH6 89-760 (Pongo abelii entry), biotin on the Avi tag (BirA) where captured on streptavidin)
T1 construct: also called Cyno TfR Avi-His; cyno TfR Avi-His
T1 chain: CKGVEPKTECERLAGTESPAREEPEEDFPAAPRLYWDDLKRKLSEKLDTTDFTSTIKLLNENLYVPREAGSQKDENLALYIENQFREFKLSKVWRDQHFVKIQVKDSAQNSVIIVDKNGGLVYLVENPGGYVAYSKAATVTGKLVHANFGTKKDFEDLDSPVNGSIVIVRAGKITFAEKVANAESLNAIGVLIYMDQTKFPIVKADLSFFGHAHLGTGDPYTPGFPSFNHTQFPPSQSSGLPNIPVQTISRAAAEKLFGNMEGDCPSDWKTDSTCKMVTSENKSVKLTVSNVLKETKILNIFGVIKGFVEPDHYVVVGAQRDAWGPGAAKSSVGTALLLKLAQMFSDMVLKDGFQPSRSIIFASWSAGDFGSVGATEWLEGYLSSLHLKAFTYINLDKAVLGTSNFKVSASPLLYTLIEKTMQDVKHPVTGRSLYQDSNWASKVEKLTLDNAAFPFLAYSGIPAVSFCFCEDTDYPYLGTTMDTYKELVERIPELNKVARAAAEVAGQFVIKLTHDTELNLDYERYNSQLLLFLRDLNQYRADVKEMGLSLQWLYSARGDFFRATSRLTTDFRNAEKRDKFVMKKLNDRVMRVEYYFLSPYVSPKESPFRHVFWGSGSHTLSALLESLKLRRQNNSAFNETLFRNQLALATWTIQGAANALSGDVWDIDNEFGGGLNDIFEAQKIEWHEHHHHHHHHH

T2: huTfR Apical Domain-Avi-His (human, biotin on the Avi tag (BirA) where captured on streptavidin)
T2 construct: also called huTfR apical Avi-His; hTfR Apical
T2 chain: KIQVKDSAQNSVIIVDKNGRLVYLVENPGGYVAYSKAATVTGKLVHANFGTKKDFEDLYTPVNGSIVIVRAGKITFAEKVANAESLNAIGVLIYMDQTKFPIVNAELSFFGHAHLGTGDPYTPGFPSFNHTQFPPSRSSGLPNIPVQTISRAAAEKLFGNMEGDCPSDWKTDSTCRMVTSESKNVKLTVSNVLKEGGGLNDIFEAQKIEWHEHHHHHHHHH


What was measured:
[1] = target: T3, Full length human TfR on CHO cells (human, UniProt P02786); assay: FACS MFI
T3 construct: also called CHO + huTfR; CHO + hTfR

[2] = target: T4, Mouse TfR (muTfR) ECD Avi-His (mouse, UniProt Q62351, biotin on the Avi tag (BirA) where captured on streptavidin); assay: ELISA OD450
T4 construct: also called MuTfR Avi-His

[3] = target: T1, Cyno TfR ECD Avi-His; assay: ELISA OD450
[4] = target: T2, huTfR Apical Domain-Avi-His; assay: ELISA OD450

T3 sequence (P02786 whole entry): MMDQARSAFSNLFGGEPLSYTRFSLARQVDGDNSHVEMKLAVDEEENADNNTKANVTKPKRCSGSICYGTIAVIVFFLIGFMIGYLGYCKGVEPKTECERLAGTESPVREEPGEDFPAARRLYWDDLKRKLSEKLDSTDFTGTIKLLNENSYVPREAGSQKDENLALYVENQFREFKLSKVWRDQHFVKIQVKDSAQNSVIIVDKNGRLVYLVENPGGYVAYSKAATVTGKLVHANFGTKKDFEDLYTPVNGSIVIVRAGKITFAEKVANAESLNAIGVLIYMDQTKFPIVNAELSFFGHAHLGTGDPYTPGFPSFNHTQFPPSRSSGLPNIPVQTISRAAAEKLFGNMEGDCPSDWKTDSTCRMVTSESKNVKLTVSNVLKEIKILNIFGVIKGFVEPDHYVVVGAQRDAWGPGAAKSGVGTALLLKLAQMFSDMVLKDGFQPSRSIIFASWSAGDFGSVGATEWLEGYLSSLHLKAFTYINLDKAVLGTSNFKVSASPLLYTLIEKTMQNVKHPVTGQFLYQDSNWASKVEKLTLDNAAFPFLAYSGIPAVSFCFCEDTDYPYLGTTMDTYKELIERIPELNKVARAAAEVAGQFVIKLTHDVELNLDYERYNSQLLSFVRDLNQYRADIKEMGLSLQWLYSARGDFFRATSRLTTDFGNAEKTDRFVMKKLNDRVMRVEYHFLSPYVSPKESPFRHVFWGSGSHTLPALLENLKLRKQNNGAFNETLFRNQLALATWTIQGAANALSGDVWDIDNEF

Row | Binder | fold over CHO parental [1] [fold] | fold over isotype control [2] [fold] | fold over isotype control [3] [fold] | fold over isotype control [4] [fold]
1 | TfR2 2+1 anti-TfR bispecific antibody (bispecific antibody, human IgG1, kappa, 2+1) heavy 1: EVRLLESGGGLVQPGGSLRLSCAASGFTFSNYAMGWVRQAPGKGLEWVSAISGSGGSTYYADSVKGRFTTSRDDSKNALYLQMNSLRAEDTAVYYCARGGPGWYAADVWGQGTTVTVSSASTKGPSVFPLAPSSKSTSGGTAALGCLVKDYFPEPVTVSWNSGALTSGVHTFPAVLQSSGLYSLSSVVTVPSSSLGTQTYICNVNHKPSNTKVDKKV[here human IgG1 Fc with changes without letters]GGGGSGGGGSGGGGSEVQLQQSGPELVKPGASVKISCKASGYTFTDYNMHWVKQSHGKSLEWIGYIYPYNGGTGYNQKFKSKATLTVDNSSSTAYMELRSLTSEDSAVYYCATLYDGYYFDYWGQGTTLTVSSGGSEGKSSGSGSESKSTGGSDILLTQSPAILSVSPGERVSFSCRASQSIGTSIHWYQQRTNGSPRLLIKYASESISGIPSRFSGSGSGTDFTLSINNVESEDIADYYCQQSNSWPFTFGSGTKLEIK heavy 2: EVRLLESGGGLVQPGGSLRLSCAASGFTFSNYAMGWVRQAPGKGLEWVSAISGSGGSTYYADSVKGRFTTSRDDSKNALYLQMNSLRAEDTAVYYCARGGPGWYAADVWGQGTTVTVSS[here human IgG1 constant region with changes without letters] light: DIQMTQSPSSLSASVGDRVTITCRASQSISSYLNWYQQKPGKAPKLLIYAASSLQSGVPSRFSGSGSGTDFTLTISSLQPEDFATYYCQQADLPAFAFGGGTKVEIKRTVAAPSVFIFPPSDEQLKSGTASVVCLLNNFYPREAKVQWKVDNALQSGNSQESVTEQDSKDSTYSLSSTLTLSKADYEKHKVYACEVTHQGLSSPVTKSFNRGEC | 1 | 1 | 1 | 1
2 | TfR4 2+1 anti-TfR bispecific antibody (bispecific antibody, human IgG1, kappa, 2+1) heavy 1: EVRLLESGGGLVQPGGSLRLSCAASGFTFSNYAMGWVRQAPGKGLEWVSAISGSGGSTYYADSVKGRFTTSRDDSKNALYLQMNSLRAEDTAVYYCARGGPGWYAADVWGQGTTVTVSSASTKGPSVFPLAPSSKSTSGGTAALGCLVKDYFPEPVTVSWNSGALTSGVHTFPAVLQSSGLYSLSSVVTVPSSSLGTQTYICNVNHKPSNTKVDKKV[here human IgG1 Fc with changes without letters]GGGGSGGGGSGGGGSQVQLQQSGAELVRPGTSVKVSCKASGYAFTNYLIEWVKQRPGQGLEWIGVINPGSGGTTYNEKFKGKATLTADKSSSTAYMQLSGLTSDDSAVYFCARRSPYFDYWGQGTTLTVSSGGSEGKSSGSGSESKSTGGSSIVMTQTPKFLLVSAGDRVTITCKASQSVSNDVAWYQQKPGQSPKLLIYYASNRYTGVPDRFTGSGYGTDFTFTISTVQAEDLAVYFCHQDYISPTFGGGTKLEIK heavy 2: EVRLLESGGGLVQPGGSLRLSCAASGFTFSNYAMGWVRQAPGKGLEWVSAISGSGGSTYYADSVKGRFTTSRDDSKNALYLQMNSLRAEDTAVYYCARGGPGWYAADVWGQGTTVTVSS[here human IgG1 constant region with changes without letters] light: DIQMTQSPSSLSASVGDRVTITCRASQSISSYLNWYQQKPGKAPKLLIYAASSLQSGVPSRFSGSGSGTDFTLTISSLQPEDFATYYCQQADLPAFAFGGGTKVEIKRTVAAPSVFIFPPSDEQLKSGTASVVCLLNNFYPREAKVQWKVDNALQSGNSQESVTEQDSKDSTYSLSSTLTLSKADYEKHKVYACEVTHQGLSSPVTKSFNRGEC | 305 | 1 | 1 | 40
3 | TfR8 2+1 anti-TfR bispecific antibody (bispecific antibody, human IgG1, kappa, 2+1) heavy 1: EVRLLESGGGLVQPGGSLRLSCAASGFTFSNYAMGWVRQAPGKGLEWVSAISGSGGSTYYADSVKGRFTTSRDDSKNALYLQMNSLRAEDTAVYYCARGGPGWYAADVWGQGTTVTVSSASTKGPSVFPLAPSSKSTSGGTAALGCLVKDYFPEPVTVSWNSGALTSGVHTFPAVLQSSGLYSLSSVVTVPSSSLGTQTYICNVNHKPSNTKVDKKV[here human IgG1 Fc with changes without letters]GGGGSGGGGSGGGGSQVQLQQSGAELVRPGTSVKVSCKASGYAFTNYLIEWVKQRPGQGLEWIGVINPGSGGTNYNEKFKGKATLTADKSSSTAYMQLSSLTSDDSAVYFCARRSPYFDYWGQGTTLTVSSGGSEGKSSGSGSESKSTGGSSIVMTQTPKFLLVSAGDRVTITCKASQSVSNDVAWYQQKPGQSPKLLIYYASNRYTGVPDRFTGSGYGTDFTFTISTVQAEDLAVYFCHQDYISPTFGGGTKLEIK heavy 2: EVRLLESGGGLVQPGGSLRLSCAASGFTFSNYAMGWVRQAPGKGLEWVSAISGSGGSTYYADSVKGRFTTSRDDSKNALYLQMNSLRAEDTAVYYCARGGPGWYAADVWGQGTTVTVSS[here human IgG1 constant region with changes without letters] light: DIQMTQSPSSLSASVGDRVTITCRASQSISSYLNWYQQKPGKAPKLLIYAASSLQSGVPSRFSGSGSGTDFTLTISSLQPEDFATYYCQQADLPAFAFGGGTKVEIKRTVAAPSVFIFPPSDEQLKSGTASVVCLLNNFYPREAKVQWKVDNALQSGNSQESVTEQDSKDSTYSLSSTLTLSKADYEKHKVYACEVTHQGLSSPVTKSFNRGEC | 293 | 1 | 1 | 32
4 | TfR18 2+1 anti-TfR bispecific antibody (bispecific antibody, human IgG1, kappa, 2+1) heavy 1: EVRLLESGGGLVQPGGSLRLSCAASGFTFSNYAMGWVRQAPGKGLEWVSAISGSGGSTYYADSVKGRFTTSRDDSKNALYLQMNSLRAEDTAVYYCARGGPGWYAADVWGQGTTVTVSSASTKGPSVFPLAPSSKSTSGGTAALGCLVKDYFPEPVTVSWNSGALTSGVHTFPAVLQSSGLYSLSSVVTVPSSSLGTQTYICNVNHKPSNTKVDKKV[here human IgG1 Fc with changes without letters]GGGGSGGGGSGGGGSQVQLQQSGAELVRPGTSVKVSCKASGYAFTNYLIEWIKQRPGQGLEWIGVINPGNNDTTYNEMFKAKTTLTADKSSNTAYMQLSSLTSDDSAVYFCARRSPYFDYWGQGTTLTVSSGGSEGKSSGSGSESKSTGGSSIVMTQTPKFLLVSAGDRVTITCKASQSVSNDVAWYQQKPGQSPKLLIYYASNRYTGVPDRFTGSGYGTDFTFTISTVQAEDLAVYFCHQDYSSPTFGGGTKLEIK heavy 2: EVRLLESGGGLVQPGGSLRLSCAASGFTFSNYAMGWVRQAPGKGLEWVSAISGSGGSTYYADSVKGRFTTSRDDSKNALYLQMNSLRAEDTAVYYCARGGPGWYAADVWGQGTTVTVSS[here human IgG1 constant region with changes without letters] light: DIQMTQSPSSLSASVGDRVTITCRASQSISSYLNWYQQKPGKAPKLLIYAASSLQSGVPSRFSGSGSGTDFTLTISSLQPEDFATYYCQQADLPAFAFGGGTKVEIKRTVAAPSVFIFPPSDEQLKSGTASVVCLLNNFYPREAKVQWKVDNALQSGNSQESVTEQDSKDSTYSLSSTLTLSKADYEKHKVYACEVTHQGLSSPVTKSFNRGEC | 777 | 1 | 1 | 39
